Laboratory results as given in publication PMC4336329 (PLoS ONE, 2015).
Screen size: about 310,000 compounds; about 14,000 (4.5%) showed an effect of 50% or more. The effect is printed as a negative number. This is one part of the list.

molecular target: human ether-à-go-go-related gene (hERG) potassium channel (human, UniProt Q12809); test: primary screen, population patch clamp on CHO cells stably expressing hERG
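Further: peak tail current of the secondary pulse compared with the same well before compound.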

human ether-à-go-go-related gene (hERG) potassium channel, sequence (Q12809 whole entry, looked up): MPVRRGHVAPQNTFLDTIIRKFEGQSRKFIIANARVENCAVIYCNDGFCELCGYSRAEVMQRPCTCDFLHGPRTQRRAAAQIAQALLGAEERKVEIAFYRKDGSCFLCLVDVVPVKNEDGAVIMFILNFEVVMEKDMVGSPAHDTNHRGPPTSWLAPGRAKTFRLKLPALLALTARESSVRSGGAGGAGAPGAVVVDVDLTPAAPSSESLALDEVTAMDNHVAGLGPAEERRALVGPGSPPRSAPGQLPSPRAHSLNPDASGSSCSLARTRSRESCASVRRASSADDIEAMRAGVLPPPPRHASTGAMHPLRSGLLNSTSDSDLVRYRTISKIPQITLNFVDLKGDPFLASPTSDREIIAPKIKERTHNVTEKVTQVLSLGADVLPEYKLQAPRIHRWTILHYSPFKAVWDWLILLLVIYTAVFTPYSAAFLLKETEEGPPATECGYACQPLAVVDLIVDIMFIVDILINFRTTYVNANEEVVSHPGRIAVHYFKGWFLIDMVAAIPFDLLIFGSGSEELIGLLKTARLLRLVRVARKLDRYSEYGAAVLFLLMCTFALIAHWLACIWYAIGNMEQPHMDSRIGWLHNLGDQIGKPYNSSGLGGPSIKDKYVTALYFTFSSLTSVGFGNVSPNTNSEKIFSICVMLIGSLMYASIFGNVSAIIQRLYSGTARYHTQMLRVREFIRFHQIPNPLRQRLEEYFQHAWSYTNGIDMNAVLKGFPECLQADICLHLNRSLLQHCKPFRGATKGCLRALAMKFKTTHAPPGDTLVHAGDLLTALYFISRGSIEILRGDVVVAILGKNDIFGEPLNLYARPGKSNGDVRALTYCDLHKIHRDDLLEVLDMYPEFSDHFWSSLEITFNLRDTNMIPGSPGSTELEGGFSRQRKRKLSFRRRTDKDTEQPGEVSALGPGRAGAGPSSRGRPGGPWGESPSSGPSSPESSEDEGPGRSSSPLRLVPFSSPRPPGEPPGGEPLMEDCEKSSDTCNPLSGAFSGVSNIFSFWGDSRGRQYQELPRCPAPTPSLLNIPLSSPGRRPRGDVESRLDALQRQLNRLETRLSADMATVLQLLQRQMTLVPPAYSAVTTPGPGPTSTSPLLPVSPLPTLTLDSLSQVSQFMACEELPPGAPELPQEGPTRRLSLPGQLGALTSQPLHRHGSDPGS

Structure (SMILES)	hERG current change (%, negative = inhibition) at 10uM [%]
Cc1ccc(NC(=O)CS(=O)CC(=O)Nc2ccc(N3CCOCC3)cc2)cc1Cl (centres unmarked)	1.1
CC1Cc2ccccc2N1C(=O)CN1C(=O)NC2(CCCCC2)C1=O (centres unmarked)	14.8
Cc1ccc(C2=C(CC(=O)O)C(=O)CC2)cc1	12.1
C/C(=N/Nc1ccccc1[N+](=O)[O-])c1ccc([N+](=O)[O-])cc1	5.07
Cc1ccc(C(=O)Nc2nc3ccc(S(C)(=O)=O)cc3s2)cc1C	12
Cc1cc(S(=O)(=O)N2CCOCC2)ccc1OCC(=O)Nc1ccc(F)cc1F	12.3
COc1cc(CNC(C)C)c(Br)cc1OC1CCCC1.Cl	-0.224
CCOc1cc(/C=N/NC(=O)C(=O)NCCCOC(C)C)cc(Br)c1O	7.39
COc1ccc([N+](=O)[O-])cc1NC(=O)C(C)OC(=O)Cn1[nH]c(=O)c2ccccc2c1=O (centres unmarked)	-7.54
COc1cccc(N=C2SC(C(=O)Nc3ccccc3F)CC(=O)N2C)c1 (centres unmarked)	-2.52
Cc1c(Cl)cn2c(=O)cc(CN3CCN(c4ccc(F)cc4)CC3)nc2c1Cl	-37.1
O=C(Nc1ccc(S(=O)(=O)N2CCOCC2)cc1)c1cccc(Br)c1	-7.61
C=CCN(c1ccc(Br)cc1C(=O)OC)S(C)(=O)=O	0.801
Cc1[nH]c(=O)c(C#N)c(C)c1[N+](=O)[O-]	-0.00732
Cc1ccc(C)c(OCCCNCc2ccccc2)c1.O=C(O)C(=O)O	-25.5
COC(=O)N/N=C/c1ccccc1OCc1ccccc1	13.4
CCOc1ccc(OC(=O)c2cccnc2)cc1	25.1
CCCCOc1c(Cl)cc(C(=O)N(C)CC(=O)Nc2ccc(N3CCOCC3)cc2)cc1OCC	9.24
N#CC1=C(C=Nc2ccccc2O)CCC1	19

Structure (SMILES)	hERG current change (%, negative = inhibition) at 10uM [%]
CC(C)N(C(=O)c1ccc(C(=O)Nc2ccc([N+](=O)[O-])cc2)cc1)C(C)C	15.7
CCn1cc(C(=O)O)c(=O)c2cnc(N3CCN(C(=S)NC(=O)c4ccc(F)c(F)c4)CC3)nc21	17.9
COc1ccccc1N1CCN(c2ncnc3c2oc2ccccc23)CC1	6.73
CC1=CC(C2CC(=O)N(c3ccccc3C)C2=O)CC2C(=O)N(c3ccccc3C)C(=O)C12 (centres unmarked)	-3.52
CC(C)NC(=O)CSc1ccccc1C(=O)N1CCN(S(=O)(=O)/C=C/c2ccccc2)CC1	-27.9
COc1cc(C(=O)OCC(=O)NCCCc2ccccc2)ccc1OCC(C)C	13.4
CC(=O)Oc1ccc([C@@H]2COc3c(ccc4c3C=CC(C)(C)O4)C2)c(OC(C)=O)c1	14.7
COc1cc(C(=O)OCC(=O)NC2CCCC2)cc(OC)c1OC	16.7
CC(OC(=O)Cn1[nH]c(=O)c2ccccc2c1=O)C(=O)NC1(C#N)CCCCC1 (centres unmarked)	4.63
COc1ccccc1NC(=O)C1=C(C)Nc2nc(-c3ccccc3)nn2C1c1ccccn1 (centres unmarked)	-21.3
Cc1noc(C)c1CSCc1ccc(Cl)cc1	31.2
Cc1[nH]nc2c1-c1nc3ccccc3nc1C(C)(C)C2	8.32
O=C(COC(=O)c1ccc2ncsc2c1)Nc1ncc(Cl)cc1Cl	-1.12
CCNC(=O)/C(C#N)=C/c1c(N(Cc2ccccc2)Cc2ccccc2)nc2ccccn2c1=O	-35.9
NC(=O)N/N=C/c1cccc(C(F)(F)F)c1	7.26
O=C(Oc1ccc2ccccc2c1Br)N1CCCCCC1	1.59
CCc1ccc(/C=C\C(=O)N2CCCC2)cc1	-11.8
COc1ccccc1NC(=O)Cc1csc(N)n1	8.31
Cc1cccc(CS(=O)(=O)c2cn(CC(=O)N3CCOCC3)c3ccccc23)c1	-1.17

Structure (SMILES)	hERG current change (%, negative = inhibition) at 10uM [%]
O=C1c2c(O)cccc2Cc2cccc(O)c21	5.15
O=C(CCCn1c(=O)oc2ccccc21)N1CCN(c2ccccn2)CC1	-47.6
Cc1nc2c(n1O)CCC/C2=N\O	7.32
CN(/N=C/c1ccc([N+](=O)[O-])o1)c1ccccc1	2.91
CCOC(=O)c1ccc[n+](CC(=O)c2ccc(NC(=O)c3ccccc3)cc2)c1.[Br-]	-3.73
COc1ccc(NC(=O)c2cc3c(CO)cnc(C)c3oc2=Nc2cccc(F)c2)c(OC)c1	18.7
CCSc1nnc(N2C(=O)c3ccc(C(=O)c4ccc(C(=O)O)cc4)cc3C2=O)s1	3.84
O=C(COC(=O)CNS(=O)(=O)c1c(Cl)cccc1Cl)Nc1cccnc1Cl	1.5
CC1CCc2[nH]c3ccc(C(=O)Nc4ccc(C(=O)N(C)C)cc4)cc3c2C1 (centres unmarked)	28.9
Cc1cc(=O)oc2cc(OC(C)C(=O)NC3CCN(Cc4ccccc4)CC3)ccc12 (centres unmarked)	-79.2
CCOC(=O)c1c(CN(CC)CC)oc2ccc(OC)cc12	-61.9
CC1CCN(CCCCOc2ccc(C(C)(C)C)cc2)CC1.O=C(O)C(=O)O	-59.6
COc1ccc(C(CC(=O)N2CCCC2)c2ccc(F)cc2)cc1 (centres unmarked)	-71.5
O=C(CCc1nnc(-c2ccccc2)o1)NCc1c(F)cccc1F	17.8
COc1ccc(NC(=O)CSc2c3c(nc4ccccc24)CCCC3)c(OC)c1	-47.5
CC1CCN(S(=O)(=O)c2ccc3c(c2)N(CC(=O)NCc2cccnc2)C(=O)CS3)CC1	-53.3
CCOC(=O)CC1C(=O)NCCN1C(=O)c1c(F)cccc1F (centres unmarked)	16.1
Cc1ccc(NS(=O)(=O)c2ccc(C(=O)OCC(=O)NCC3CCCO3)cc2)cc1 (centres unmarked)	2.06
